# Experimental data: PubChem BioAssay AID1851 (National Center for Advancing Translational Sciences (NCATS), 2009)
# Among all 16,000 compounds or so, about 5,700 (36%) were called active. Another 24% or so got no clear call; they are omitted. Calls follow the shape of the dose curve; as a rule, active = well fitted curve in the direction sought with a large enough effect; inconclusive = small, poorly fitted or top-dose-only effect, or effect the other way; inactive = no such curve, though single readings can be large or run the other way. Certain results were filed several times, with different values. They are shown here; other results are not. The source may hold further records. Values that stand side by side are repeated measurements (runs, samples, wells, individuals or studies). Signs of the kind (2×) stand for listed records that agree.
# Target: Cytochrome P450 1A2 (Homo sapiens) (UniProt P05177)
# Assay: Cytochrome panel assay with activity outcomes
# Conditions: recombinant CYP, pro-luciferin dealkylation, luminescence; p450-cyp1a2
# UniProt P05177, sequence (P05177 whole entry, looked up): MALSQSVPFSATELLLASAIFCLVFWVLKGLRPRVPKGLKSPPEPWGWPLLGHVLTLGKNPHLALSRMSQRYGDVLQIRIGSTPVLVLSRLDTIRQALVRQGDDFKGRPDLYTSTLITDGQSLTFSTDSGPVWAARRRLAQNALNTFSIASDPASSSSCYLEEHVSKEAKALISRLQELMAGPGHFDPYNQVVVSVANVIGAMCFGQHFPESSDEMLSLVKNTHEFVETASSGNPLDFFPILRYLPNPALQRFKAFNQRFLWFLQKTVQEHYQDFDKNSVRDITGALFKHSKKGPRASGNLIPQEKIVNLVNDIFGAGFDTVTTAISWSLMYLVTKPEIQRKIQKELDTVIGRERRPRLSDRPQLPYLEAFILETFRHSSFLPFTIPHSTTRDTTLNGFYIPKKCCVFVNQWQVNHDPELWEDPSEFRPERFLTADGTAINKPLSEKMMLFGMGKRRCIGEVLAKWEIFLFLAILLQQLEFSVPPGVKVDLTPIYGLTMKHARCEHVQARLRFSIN
row,SMILES,AC50
1,CC(C)NC[C@@H](O)COc1cccc2ccccc12,"active: 1.58 µM, 1.26 µM, 251 nM, 631 nM, 200 nM (2×), 158 nM [separate samples]"
